Out of some 390,000 compounds screened, about 4,000 (1%) were called active. Inconclusive means that the source gave no clear call. Such entries were picked first, then a sample of the others. Calls follow the shape of the dose curve; as a rule, active = well fitted inhibition curve with a large enough effect; inconclusive = small, poorly fitted or top-dose-only effect; inactive = no such curve, though single readings can be large or run the other way. Potencies beside an inconclusive call are fits to weak or partial responses and may not hold up.
Each molecule was assayed against Thioredoxin reductase 1, cytoplasmic (Rattus norvegicus) (UniProt O89049) (assay: qHTS Assay for Inhibitors of Mammalian Selenoprotein Thioredoxin Reductase 1 (TrxR1): qHTS). Settings: recombinant rTrxR1, NADPH fluorescence consumption, selenite substrate; series mostly up to 114 µM.
Chain of UniProt O89049 (O89049 whole entry, looked up): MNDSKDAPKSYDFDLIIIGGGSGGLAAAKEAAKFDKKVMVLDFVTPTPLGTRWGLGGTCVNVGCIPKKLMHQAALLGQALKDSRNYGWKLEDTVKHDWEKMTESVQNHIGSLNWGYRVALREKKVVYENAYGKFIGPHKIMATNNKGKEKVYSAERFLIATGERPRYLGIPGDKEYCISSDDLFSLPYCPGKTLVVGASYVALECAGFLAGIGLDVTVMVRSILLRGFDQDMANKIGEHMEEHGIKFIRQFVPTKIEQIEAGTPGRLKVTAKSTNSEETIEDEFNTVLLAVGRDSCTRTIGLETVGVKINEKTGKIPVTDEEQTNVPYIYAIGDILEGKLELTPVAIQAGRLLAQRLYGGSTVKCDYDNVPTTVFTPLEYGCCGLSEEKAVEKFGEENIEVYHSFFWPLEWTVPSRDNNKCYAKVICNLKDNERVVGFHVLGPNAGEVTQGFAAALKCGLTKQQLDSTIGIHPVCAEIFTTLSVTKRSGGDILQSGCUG
How it was run: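 Rat TrxR1 (90 nM in the dispensed reagent) was pre-reduced with 400 uM NADPH for 5 min at room temperature, then incubated with compound for 15 min. After 400 uM selenite was added, NADPH fluorescence (Ex 340/Em 450 nm) was followed for 8 min.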
Also: nearly all actives have a fitted effect of over 65% in size.
Potency is read from the fitted curve at half-maximal effect; tags tell the direction and shape of the fitted curve.

Row | Compound | Potency
1 | O=C1c2[nH]nc(-c3ccccc3O)c2C(c2ccc(Cl)cc2)N1Cc1ccco1 (stereo not drawn) | inactive
2 | c1ccc2c(NC3CCCC3)nnc(NC3CCCC3)c2c1 | inconclusive: 14.1 µM [inhibitor, full curve]
3 | O=C1C2C3C=CC(O3)C2C(=O)N1N=Cc1ccc2c(c1)OCO2 (stereo not drawn) | inconclusive: 79.4 µM [inhibitor, single point]
4 | Cc1ccc(C2C=C(c3ccc(Cl)cc3)Nc3nc(NS(=O)(=O)c4ccccc4)nn32)cc1 (stereo not drawn) | inconclusive: 79.4 µM [inhibitor, single point]
5 | Cc1cccc(Nc2nc(N)c([N+](=O)[O-])c(N3CCC(C)CC3)n2)c1 | inactive
6 | Cc1ccc(N/N=C2/CCCNC2=O)cc1 | inconclusive: 31.6 µM [inhibitor, single point]
7 | CCOCCCNC(=O)NC(C)c1c(-n2cccc2)sc2c1CCN(CC)C2 (stereo not drawn) | inactive
8 | Nc1ccccc1N=Nc1ccccc1N | inactive
9 | COc1cc(-c2nc3nc[nH]n3c2Nc2ccc(C(C)C)cc2)ccc1O | inconclusive: 20 µM [inhibitor, full curve]
10 | CC(C)Sc1nc(NCc2ccco2)c2c3c(sc2n1)COC(C)(C)C3 | inconclusive: 44.7 µM [inhibitor, partial curve]
11 | Cc1ccccc1NC(=S)/C(=C(\[O-])c1ccc(C)c([N+](=O)[O-])c1)[n+]1ccccc1 | inconclusive: 79.4 µM [inhibitor, partial curve, poor fit]
12 | COc1ccccc1CN=Cc1[nH]c2ccc(Br)c(Cl)c2c1O | inactive
13 | Cc1ccc(N(Cc2cc3ccc(C)cc3[nH]c2=O)C(=O)c2ccco2)cc1 | inconclusive: 14.1 µM [inhibitor, full curve, poor fit]
14 | COc1ccc(-n2c(C)cc(C(=O)CCl)c2C)cc1 | inconclusive: 10 µM [inhibitor, full curve]
15 | COc1ccc(N(CC(=O)N/N=C/c2cc(Br)c(C)o2)S(=O)(=O)c2ccc(NC(C)=O)cc2)cc1 | inconclusive: 22.4 µM [inhibitor, full curve]
16 | Cc1ccc(/C=C2\SC(=S)N(CCC(=O)NCCCN3CCOCC3)C2=O)cc1 | inactive
17 | CCn1cc(C(=O)N2CCN(c3cc(C)ccc3C)CC2)c(=O)c2cc(S(=O)(=O)N3CCOCC3)ccc21 | inactive
18 | CC(=O)N(C(C)=O)N1C(=O)/C(=C/c2ccc(Cl)cc2)SC1=S | inconclusive: 20 µM [inhibitor, partial curve]
19 | Cc1cc(-c2n[nH]c(=S)n2/N=C/C(Br)=C/c2ccccc2)n[nH]1 | inconclusive: 10 µM [inhibitor, partial curve, poor fit]
20 | CC(=C1C(=O)c2ccccc2C1=O)N1CCN(C/C=C/c2ccccc2)CC1 | inconclusive: 44.7 µM [inhibitor, partial curve, poor fit]
21 | O=C(Nc1nc(-c2cccs2)cs1)C1CC(=O)N(c2ccc3c(c2)OCCO3)C1 (stereo not drawn) | inactive
22 | O=C(CSc1nc2ccccc2c(=O)[nH]1)c1ccc(O)c(O)c1 | active: 50.1 µM

Row | Compound | Potency
23 | FC(F)Oc1cccc(NC(=S)N2CCN(c3ccccn3)CC2)c1 | inconclusive: 25.1 µM [inhibitor, full curve]
24 | COc1ccc(NS(=O)(=O)c2c(F)cccc2F)cc1S(=O)(=O)N1CCOCC1 | inconclusive: 7.08 µM [inhibitor, full curve]
25 | CCOC(=O)C[C@H]1c2cc(F)ccc2S(=O)(=O)N1Cc1cc(OC)c(OC)c(OC)c1 | inactive
26 | COc1ccc(-n2nc3ccc(NC(=O)c4ccc(-c5cc(Cl)ccc5Cl)o4)cc3n2)cc1 | inconclusive: 70.8 µM [inhibitor, partial curve, poor fit]
27 | COc1ccc(-c2nc3ccccc3c(=O)n2NC(=S)N(C)C)cc1 | inconclusive: 15.8 µM [inhibitor, partial curve]
28 | Clc1cccc(N2CCN(c3nc4ccccc4n4cnnc34)CC2)c1 | inactive
29 | Oc1ccc(COCc2ccccc2)c2cccnc12 | inactive
30 | CN(CCCNC(=O)C1CCC(CNS(=O)(=O)c2ccccc2)CC1)Cc1ccccc1 (stereo not drawn) | inconclusive: 56.2 µM [inhibitor, partial curve, poor fit]
31 | CCCn1c(N)c(C(=S)NC(=O)C2CC2)c(=O)n(C)c1=O | inconclusive: 22.4 µM [inhibitor, full curve]
32 | COc1ccc(CNc2cccc3[nH]c(C(F)(F)F)nc23)cc1OC | inconclusive: 22.4 µM [inhibitor, single point]
33 | NC1=NC(=O)/C(=C\c2ccc(-c3ccccc3[N+](=O)[O-])o2)S1 | inconclusive: 39.8 µM [inhibitor, partial curve, poor fit]
34 | O=S(=O)(/C(=C\c1ccc(C(F)(F)F)cc1)c1nc2ccccc2[nH]1)c1ccccc1 | active: 4.47 µM
35 | COc1cc2c(OC(C)=O)c3c(c(-c4ccc5c(c4)OCO5)c2cc1OC)C(=O)OC3 | inactive
36 | c1cc2c(cc1C1CCCN1)OCCCO2 (stereo not drawn) | active: 44.7 µM
37 | CCOc1cc(/C=C/C(=O)c2ccc(O)cc2)ccc1OCC(=O)N(C)C | inconclusive: 31.6 µM [inhibitor, partial curve]
38 | COc1ccc(OC)c(CN2CCN(C(=O)c3cccc(S(=O)(=O)Nc4ccccc4OC)c3)CC2)c1 | inconclusive: 44.7 µM [inhibitor, partial curve]
39 | COn1c(=O)c(-c2cccs2)[n+]([O-])c2ccccc21 | inconclusive: 14.1 µM [inhibitor, full curve]
40 | CCCCCCCCCC[n+]1ccc(/C=C/c2ccc(N(C)C)cc2)c2ccccc21 | inconclusive: 44.7 µM [inhibitor, partial curve]
41 | O=C(COC(=O)Cc1ccc(Br)cc1)NC12CC3CC(CC(C3)C1)C2 | inconclusive: 3.16 µM [inhibitor, partial curve]
42 | O=C(Nc1ccccc1N1CCCC1)c1cc2ccccc2o1 | inconclusive: 79.4 µM [inhibitor, partial curve]
43 | Cc1c2ccccc2nc2c(F)c(N(C)C)c(F)c(F)c12 | inconclusive: 31.6 µM [inhibitor, partial curve, poor fit]
